# Reference: PubChem BioAssay AID686979 (National Center for Advancing Translational Sciences (NCATS), 2013)
# Values joined by “and” are separate entries in the source; they are usually repeats but may differ in a detail not shown here. Identical values can stand only once. The campaign covered roughly 420,000 compounds. About 50,000 (12%) were called active. Inconclusive means that the source gave no clear call. Such entries were picked first, then a sample of the others. Calls follow the shape of the dose curve; as a rule, active = well fitted inhibition curve with a large enough effect; inconclusive = small, poorly fitted or top-dose-only effect; inactive = flat fitted curve, though single readings scatter. Where the call is inconclusive, the potency comes from a doubtful curve fit.
# Assay: qHTS for Inhibitors of human tyrosyl-DNA phosphodiesterase 1 (TDP1): qHTS in cells in presence of CPT; also: nearly all actives have a fitted effect of over 55% in size
# Details: chicken DT40 Tdp1-/-;hTDP1 cells + 20 nM CPT, ATP luminescence, 48 h; activity change, negative = growth inhibition: at 46.2 µM (top of the series) unless noted
# Outline: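 Chicken DT40 Tdp1-/- cells complemented with human TDP1, 400 cells/well, exposed to compounds plus 20 nM camptothecin for at least 48 h at 37 C; viability read as ATP content by CellTiter-Glo luminescence.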
# % is scaled to controls: 0 for no effect and ±100 for the full control effect; potency is read from the fitted curve at half-maximal effect; tags tell the direction and shape of the fitted curve.
SMILES,Potency,"activity change, negative = growth inhibition"
O=C(NCc1ccc(Cl)cc1)c1cccc(NC(=O)c2ccccc2)c1,"inconclusive: 18.4 µM [inhibitor, single point]",–
COc1cccc(NC(=O)COC(=O)Cc2ccccc2[N+](=O)[O-])c1,–,inactive: 2.36%
CC(=O)c1cccc(NC(=O)NC(C)c2ccc3c(c2)OCO3)c1 (stereo not given),–,inactive: -0.513%
COC(=O)C1CC(O)C(O)C(O)C1 (stereo not given),–,inactive: -3.04%
CC(=O)Nc1ccccc1OCC(=O)c1ccc2c(c1)OCO2,"inconclusive: 23.1 µM [inhibitor, single point]",–
O=C1CC(SCc2nc3ccccc3[nH]2)C(=O)N1c1cccc(F)c1 (stereo not given),"inconclusive: 18.4 µM [inhibitor, single point]",–
Cc1ccc(NC(=O)Cc2ccc(Cl)c(Cl)c2)cc1S(=O)(=O)N(C)C,"inconclusive: 29.1 µM [inhibitor, single point]",–
O=C(NCCc1ccccc1)[C@@H]1CC=C[C@@H]2CCN(C3CC3)C(=O)[C@@H]21,–,inactive: -6.9%
CC(C)(C)c1ccc(OCCC(=O)Nc2ccc(N3CCOCC3)cc2N2CCOCC2)cc1,active: 16.4 µM,–
Cc1ccc(S(=O)(=O)N2CCCC2)cc1C(=O)NCC(C)(C)N1CCOCC1,–,inactive: -20.5%
COc1ccccc1OCCNC(=O)c1cccc(S(=O)(=O)N2CC(C)OC(C)C2)c1 (stereo not given),"inconclusive: 20.6 µM [inhibitor, single point]",–
CSc1ccc(/C=C/C(=O)OCC(=O)NC2CC2)cc1,"inconclusive: 18.4 µM [inhibitor, partial curve]",–
O=C(Cn1c(=O)oc2cc(S(=O)(=O)NCc3ccccc3)ccc21)NCc1ccco1,"inconclusive: 18.4 µM [inhibitor, single point]",–
CC1CCN(S(=O)(=O)c2ccc3c(c2)CCN3C(=O)C2CCC2)CC1,"inconclusive: 29.1 µM [inhibitor, single point]",–
Cn1c(=O)c2c(nc(NCC3CCCO3)n2Cc2cccc(Br)c2)n(C)c1=O (stereo not given),"inconclusive: 29.1 µM [inhibitor, single point]",–
C=CCn1c(SCC(=O)Nc2ccc3c(c2)CCC3)nnc1-c1cccs1,"inconclusive: 29.1 µM [inhibitor, single point]",–
O=C(CN(c1ccc2c(c1)OCCO2)S(=O)(=O)c1ccccc1)Nc1ccc2c(c1)OCO2,"inconclusive: 11.6 µM [inhibitor, partial curve]",–
Cc1ccnc2nc(C(=O)OCC(=O)N(CC(C)C)C3CCS(=O)(=O)C3)nn12 (stereo not given),–,inactive: -2.26%
COC(=O)COc1ccc(NC(=O)C2CCCO2)cc1 (stereo not given),–,inconclusive: -36.3% [inhibitor]
COc1ccc(C2CC(=O)Oc3c(C(C)C)ccc(C)c32)cc1 (stereo not given),"inconclusive: 29.1 µM [inhibitor, single point]",–
COc1ccc(S(=O)(=O)N2CCCCCC2)cc1N(C)S(=O)(=O)c1ccc(C)cc1,"inconclusive: 25.9 µM [inhibitor, single point]",–
FC(F)(F)c1ccccc1Cc1c(-c2ccccc2)nc2ccc(Br)cn12,"inconclusive: 18.4 µM [inhibitor, single point]",–
Cc1ccc(NC2=CC(c3ccccc3F)N(c3ccc(C)cc3)C2=O)cc1 (stereo not given),–,inactive: -29.3%
CCC(CC)C(=O)NCc1ccc(Cl)cc1,"inconclusive: 23.1 µM [inhibitor, partial curve, poor fit]",–

SMILES,Potency,"activity change, negative = growth inhibition"
Cc1ccc(CNC(=O)CNC(=O)c2c(C)nn(C)c2Cl)cc1,–,inactive: 2.17%
O=C(NCc1ccc(OC(F)(F)F)cc1)C1CC(c2ccc(C(F)(F)F)cc2)=NO1 (stereo not given),"inconclusive: 18.4 µM [inhibitor, partial curve, poor fit]",–
CCc1nn(C(C)C(=O)NCc2ccc(Cl)cc2)c(=O)c2cc3occc3n12 (stereo not given),"inconclusive: 20.6 µM [inhibitor, single point]",–
CCOC(=O)c1c(NC(C)=O)sc2c(OCCN(CC)CC)c(Br)ccc12,"inconclusive: 25.9 µM [inhibitor, single point]",–
CC(C)CN1CC(COCc2ccccc2)Oc2ccccc2S1(=O)=O (stereo not given),active: 20.6 µM,–
O=C1CC(c2ccccc2)NN1 (stereo not given),"inconclusive: 23.1 µM [inhibitor, single point]",–
CCCCN(C)c1nnc(NC(=O)Nc2cccc(C(C)=O)c2)s1,"inconclusive: 16.4 µM [inhibitor, partial curve]",–
Cc1ccc(S(=O)(=O)N2C3CCCCC3O[C@H]2CC(=O)c2cccs2)cc1 (stereo not given in full),"inconclusive: 29.1 µM [inhibitor, single point]",–
CCOC(=O)C1=C[C@@H](CC)N(S(=O)(=O)c2ccc(C)cc2)[C@H]1c1cccc(Cl)c1,"inconclusive: 23.1 µM [inhibitor, single point]",–
CC(=O)Nc1cccc(Nc2cc(C)nn2C)c1,–,inactive: -4.27%
COc1ccc(-c2cc3nc(C)c(CCC(=O)N4CCN(c5cccc(Cl)c5)CC4)c(C)n3n2)c(OC)c1,active: 2.59 µM,–
CCOC(=O)N1CCN(c2nc(-c3cccs3)cc(C(F)(F)F)n2)CC1,"inconclusive: 13 µM [inhibitor, partial curve, poor fit]",–
CCOc1ccc(CCN2C(=S)N([C@@H](Cc3ccccc3)CN3CCC[C@@H]3CN3C(=S)NC[C@@H]3CC(C)C)C[C@@H]2Cc2ccccc2)cc1,"inconclusive: 23.1 µM [inhibitor, single point]",–
COc1c(C)cc(C(=O)C2CCCN(C(=O)C3=C(C)OCCO3)C2)cc1C (stereo not given),"inconclusive: 29.1 µM [inhibitor, single point]",–
Cn1c(CSCc2ccccc2)nnc1SCC(=O)Nc1nccs1,–,inactive: -38.3%
CCCC1=Nc2cc(C(=O)N3CCCC3)ccc2Sc2ccc(C)cc21,"inconclusive: 29.1 µM [inhibitor, single point]",–
CCOc1ccccc1NC(=O)C(Cc1ccccc1)NS(=O)(=O)c1ccc2c(c1)oc(=O)n2C (stereo not given),"inconclusive: 29.1 µM [inhibitor, single point]",–
CCOC(=O)N1CCN(S(=O)(=O)c2ccc(C(=O)Nc3sc4c(c3C(N)=O)CCN(CC)C4)cc2)CC1,"inconclusive: 29.1 µM [inhibitor, single point]",–
Cc1ccc(NC(=O)c2cnc(SCC(=O)NCC3CCCO3)n(C)c2=O)cc1 (stereo not given),active: 11.6 µM,–
CC1CCCC(NC(=O)NC(=O)CCl)C1C (stereo not given),active: 3.66 µM,–
O=C(O)CCCNS(=O)(=O)/C=C/c1ccccc1,–,inactive: -1.6%
Cc1cccc(NC(=O)CSc2nc(COc3ccccc3)nc3ccccc23)c1C,"inconclusive: 29.1 µM [inhibitor, single point]",–
N#CC/C(N)=N/Nc1nc2ccccc2nc1Cc1ccccc1,–,inactive: -13%
COc1ccc(NC2=CC(=O)N(C)C2=O)cc1,–,inactive: 18.6%

SMILES,Potency,"activity change, negative = growth inhibition"
O=C(Nc1cc(S(=O)(=O)N2CCCCC2)ccc1O)c1ccccc1NS(=O)(=O)c1ccc(F)cc1,inactive,–
Cc1ccccc1CN1[C@H](C)[C@H](c2ccccc2)OCCS1(=O)=O,"inconclusive: 35.5 µM [inhibitor, single point]",–
COC(=O)c1ccc(COc2ccccc2/C=C/C(=O)c2ccc(OCC(=O)O)cc2)cc1,"inconclusive: 25.9 µM [inhibitor, single point]",–
O=[N+]([O-])c1ccc(S(=O)(=O)NCC(c2cccnc2)N2CCc3ccccc3C2)cc1 (stereo not given),"inconclusive: 23.1 µM [inhibitor, partial curve]",–
Cc1ccccc1N1C(=O)CC1(C#N)c1ccc(OCc2ccccc2)cc1 (stereo not given),"inconclusive: 23.1 µM [inhibitor, single point]",–
N#Cc1cnn2c1nc(N1CCCCC1)c1ccccc12,"inconclusive: 18.4 µM [inhibitor, single point]",–
Cc1cccc(Cn2c(O)c(N=NC(=S)Nc3ccccc3F)c3ccccc32)c1,active: 7.31 µM,–
COc1ccc(CN2C(=O)C(Cc3ccccc3)Nc3ncnc(N4CCOCC4)c32)cc1 (stereo not given),"inactive and inconclusive: 25.9 µM [inhibitor, single point]",–
Cc1onc(-c2ccccc2)c1C(=O)N1CCC(CO)(Cc2ccccc2)CC1,–,inconclusive: -32.9% [inhibitor]
COCc1cc(CN2CCCC2)c(O)c2ncccc12,active: 0.651 µM,–
CCN1CCN(c2ccc(Cl)cc2NC(=O)c2ccco2)CC1,"inconclusive: 23.1 µM [inhibitor, single point]",–
COc1ccc(-c2cc(C(=O)OCC(=O)c3ccc(C)cc3)c3cccc(Cl)c3n2)cc1,"inconclusive: 1.64 µM [inhibitor, partial curve, poor fit]",–
CCc1ccccc1Nc1nc(N)nc(COC(=O)c2c(C)noc2C)n1,"inconclusive: 29.1 µM [inhibitor, single point]",–
O=C(Nc1ccccc1C(=O)NCCc1ccc(O)cc1)c1ccco1,"inconclusive: 0.0052 µM [inhibitor, full curve, poor fit]",–
CCOC(=O)Nc1ccc(=O)n(Cc2c(Cl)cccc2Cl)c1,–,inactive: -2.35%
COc1cc(CNCc2ccc(OC)c3ccccc23)cc(OC)c1OC,active: 9.2 µM,–
O=c1c2ccccc2[nH]c2ccc(O)cc12,–,inactive: 16.1%
COc1ccccc1CN(C)CC(=O)NC1CCCc2ccccc21 (stereo not given),active: 14.6 µM,–
CC(C)Oc1ccc(CC(=O)NNC(=S)Nc2ccc(Br)cc2)cc1,"inconclusive: 23.1 µM [inhibitor, single point]",–
O=C(NCC1CCCO1)C(=O)N/N=C\c1ccc2c(c1)OCO2 (stereo not given),–,inactive: -7.91%
Cc1ccc(/C=N/N2CCN(Cc3cccc4ccccc34)CC2)s1,"inconclusive: 16.4 µM [inhibitor, partial curve, poor fit]",–
CC(=O)c1ccc(N2C(=NC(=O)C(C)C)SC3CS(=O)(=O)CC32)cc1 (stereo not given),–,inactive: -10.8%
